This is one part of the list. Single values of this set are uncertain. Values with irradiation are relative to irradiated vehicle.
System: A549-Dual
Experiment: NF-kB reporter (SEAP) activity, viability-corrected, relative to vehicle (fold change vs vehicle); higher = more activation of STING-IRF / NF-kB immune response reporter
Conditions: 3 µM; irradiation: none
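Also: viability correction based on the alamar blue assay, with concentrations leaving 10% survival or less dropped.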

| Compound | NF-kB reporter |
| --- | --- |
| CC1=C(CC(=O)O)c2cc(F)ccc2/C1=C\c1ccc(S(C)=O)cc1 (stereo not given) [Sulindac] | 0.885 |
| C1N2CN3CN1CN(C2)C3 [Methenamine] | 1.15 |
| COc1ccc2cc(C(C)C(=O)[O-])ccc2c1.[Na+] (stereo not given) [Naproxen Sodium] | 0.946 |
| Cc1ccc(Cl)c(Nc2ccccc2C(=O)[O][Na])c1Cl [Meclofenamate Sodium] | 1.14 |
| O=C(OCCOCCO)c1ccccc1Nc1cccc(C(F)(F)F)c1 [Etofenamate] | 0.89 |
| O=C([O-])c1cc(N=Nc2ccc(O)c(C(=O)[O-])c2)ccc1O.[Na+].[Na+] [Olsalazine Sodium] | 0.988 |
| CC(=O)Nc1ccc(OC(=O)c2ccccc2OC(C)=O)cc1 [Benorylate] | 0.823 |
| CO/N=C(\C(=O)NC1C(=O)N2C(C(=O)OCOC(=O)C(C)(C)C)=C(C)CSC12)c1csc(N)n1.Cl (stereo not given) [Cefetamet pivoxil hydrochloride] | 0.855 |
| CCC(C(=O)O)c1ccc(N2Cc3ccccc3C2=O)cc1 (stereo not given) [Indobufen] | 0.874 |
| CS(=O)(=O)O.Cc1ccc(NC(=O)c2ccc(CN3CCN(C)CC3)cc2)cc1Nc1nccc(-c2cccnc2)n1 [Imatinib Mesylate (STI571)] | 0.774 |
| CC(C(=O)O)c1ccc(C(=O)c2ccccc2)s1 (stereo not given) [Tiaprofenic acid] | 1.29 |
| CCc1nc(N)nc(N)c1-c1ccc(Cl)cc1 [Pyrimethamine] | 1.59 |
| COc1cc(C2c3cc4c(cc3C(OC3OC5COC(C)OC5C(O)C3O)C3COC(=O)C23)OCO4)cc(OC)c1O (stereo not given) [Etoposide] | 1.19 |
| CN(C)CCC(c1ccc(Br)cc1)c1ccccn1.O=C(O)/C=C\C(=O)O (stereo not given) [Brompheniramine hydrogen maleate] | 1.1 |
| CC12CCC3c4ccc(O)cc4CC(CCCCCCCCCS(=O)CCCC(F)(F)C(F)(F)F)C3C1CCC2O (stereo not given) [Fulvestrant] | 0.86 |
| O=C([O-])CC(O)(CC(=O)[O-])C(=O)[O-].O=C([O-])CC(O)(CC(=O)[O-])C(=O)[O-].[BiH6+3].[K+].[K+].[K+] [Gastrodenol] | 1.31 |
| CCCCC1(COC(=O)CCC(=O)O)C(=O)N(c2ccccc2)N(c2ccccc2)C1=O [Suxibuzone] | 1.06 |
| O=C(O)Cc1ccccc1Nc1c(Cl)cccc1Cl.OCCN1CCCC1 [Diclofenac Epolamine] | 0.79 |
| Cl.N=C1CCCN1Cc1[nH]c(=O)[nH]c(=O)c1Cl.O=c1[nH]c(=O)n(C2CC(O)C(CO)O2)cc1C(F)(F)F.O=c1[nH]c(=O)n(C2CC(O)C(CO)O2)cc1C(F)(F)F (stereo not given) | 1.58 |
| NC(CO)(CO)CO [Trometamol] | 0.929 |

| Compound | NF-kB reporter |
| --- | --- |
| COc1ccc2c(c1)c(CC(=O)O)c(C)n2C(=O)c1ccc(Cl)cc1 [Indomethacin] | 0.982 |
| Cn1cnc([N+](=O)[O-])c1Sc1ncnc2nc[nH]c12 [Azathioprine] | 1.11 |
| NCCNc1ccc(NCCN)c2c1C(=O)c1ccncc1C2=O.O=C(O)/C=C\C(=O)O.O=C(O)/C=C\C(=O)O [Pixantrone Maleate] | 1.68 |
| CC(=O)Oc1cccc2c1C(=O)c1c(OC(C)=O)cc(C(=O)O)cc1C2=O [Diacerein] | 0.854 |
| CNCC(O)c1ccc(O)c(O)c1.O=C(O)C(O)C(O)C(=O)O (stereo not given) [Epinephrine bitartrate] | 1.53 |
| CC1(C(=O)O)CCC2(C)CCC3(C)C(=CC(=O)C4C5(C)CCC(OC6OC(C(=O)O)C(O)C(O)C6OC6OC(C(=O)O)C(O)C(O)C6O)C(C)(C)C5CCC43C)C2C1.N.N (stereo not given) [Diammonium Glycyrrhizinate] | 1.24 |
| CCCCCCCCCCCCCCCCCCOP(=O)([O-])OC1CC[N+](C)(C)CC1 [Perifosine (KRX-0401)] | 1.17 |
| COc1c2occc2cc2ccc(=O)oc12 [Methoxsalen] | 0.941 |
| O=C(O)CCCN1CCC(OC(c2ccc(Cl)cc2)c2ccccn2)CC1 (stereo not given) [Bepotastine] | 1.17 |
| CN(C)CCCOc1nn(Cc2ccccc2)c2ccccc12.Cl [Benzydamine HCl] | 0.842 |
| CC(C(=O)O)c1ccc2c(c1)[nH]c1ccc(Cl)cc12 (stereo not given) [Carprofen] | 0.84 |
| COc1cc2nccc(Oc3ccc(NC(=O)Nc4cc(C)on4)c(Cl)c3)c2cc1OC [Tivozanib (AV-951)] | 0.772 |
| Oc1ccc(/C=C/c2cc(O)cc(O)c2)cc1 [Resveratrol] | 1.11 |
| Nc1cccc2c1C(=O)N(C1CCC(=O)NC1=O)C2=O (stereo not given) [Pomalidomide] | 0.761 |
| COc1cc(C2c3cc4c(cc3C(OC3OC5COC(c6cccs6)OC5C(O)C3O)C3COC(=O)C23)OCO4)cc(OC)c1O (stereo not given) [Teniposide] | 1.58 |
| S=c1nc[nH]c2nc[nH]c12 [Mercaptopurine (6-MP)] | 0.838 |
| CC(C(=O)O)c1ccc2c(c1)CC(=O)c1ccccc1S2 (stereo not given) [Zaltoprofen] | 0.985 |
| Cc1nc(Nc2ncc(C(=O)Nc3c(C)cccc3Cl)s2)cc(N2CCN(CCO)CC2)n1.Cl [Dasatinib hydrochloride] | 1.19 |
| O=c1[nH]cc(F)c(=O)[nH]1 [Fluorouracil (5-Fluoracil, 5-FU)] | 1.11 |
| COc1cc(/C=C/C(=O)/C=C(O)/C=C/c2ccc(O)c(OC)c2)ccc1O [Curcumin] | 0.839 |

From the supplement of paper PMC9174493
